Test results from the BET-seq Pho4 binding data (Le et al. 2018).
The other results are listed elsewhere or left out. Values were computed here from the reads of four pooled replicates and scatter widely.

molecular target: T1, Pho4 (S. cerevisiae) (UniProt P07270); assay: relative binding free energy (BET-seq); higher = weaker binding; conditions: reference: library average
T1 sequence: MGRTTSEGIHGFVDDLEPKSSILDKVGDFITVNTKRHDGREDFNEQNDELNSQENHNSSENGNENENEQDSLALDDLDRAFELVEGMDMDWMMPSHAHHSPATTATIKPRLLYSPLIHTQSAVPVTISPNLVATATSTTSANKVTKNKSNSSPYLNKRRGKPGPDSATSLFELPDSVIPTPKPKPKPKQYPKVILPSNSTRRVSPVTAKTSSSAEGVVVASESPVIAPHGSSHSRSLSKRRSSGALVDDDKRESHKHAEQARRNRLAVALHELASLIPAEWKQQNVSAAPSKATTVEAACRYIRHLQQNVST

Sequence	relative binding free energy [kcal/mol]
GGAGGCACGTGACGTG	0.08
GGAAGCACGTGTTGGA	-0.12
CGTTGCACGTGCAAGG	0.06
AGTGGCACGTGTATGA	0.04
CTTTTCACGTGGTGTC	0.02
GTGTACACGTGTATCT	0.12
TTGTTCACGTGAGGAT	0.45
TTTACCACGTGGTTAA	-0.03
TGTGTCACGTGTTGTC	0.09
GATGACACGTGGGATT	-0.05
GGATACACGTGGAGTA	0.07
CTAATCACGTGAGTGG	0.32
TGCTTCACGTGCTTGT	0.22
TGTGGCACGTGTTTGG	0
ATGGACACGTGAAGTG	0.18
GTTTGCACGTGCGTAG	-0.01
ATTGTCACGTGATGAG	0.17
TGTGGCACGTGAGATT	0.16
TAGTTCACGTGTGTCA	0.12
TTGGGCACGTGAGCGA	0.2
GCTTGCACGTGTGGTG	0.09
ATATACACGTGTATTG	-0.1
GAGAACACGTGGGTTG	0.01
TTGTGCACGTGGTATC	-0.17
AGTGCCACGTGAGGTT	0.12
TATGCCACGTGATGGT	-0.05

Sequence	relative binding free energy [kcal/mol]
GAGGTCACGTGGGCAG	0.01
AGAGACACGTGAGGGC	0.17
TGGTACACGTGGGCTT	-0.12
CAGTACACGTGAGTGT	0.14
AATGTCACGTGAGTGG	0.23
AGTCGCACGTGTCGGG	-0.01
TGTATCACGTGCGGCT	0.09
ACGGTCACGTGGAGCG	0.15
CAGGTCACGTGATAGG	0.26
TTAGCCACGTGTTTTT	-0.05
TAGGGCACGTGGAGCA	-0.21
AATTACACGTGTTAGA	0.15
TCGGGCACGTGATATA	0.07
TGAGTCACGTGAGGTA	0.36
CAGGTCACGTGTTATG	0
GGTAACACGTGGATTA	0.2
AATGGCACGTGAATTA	0.15
AGTTGCACGTGAAGCT	0.23
AGGAGCACGTGGGGTC	-0.29
ATACTCACGTGGGGAG	0.08
TAATGCACGTGAAATG	0.21
GGGAGCACGTGGTTGT	-0.04
GTATGCACGTGAGATT	0.18
ACGTGCACGTGTGAGT	-0.12
AGGCTCACGTGCTGGT	0.15
TGTCTCACGTGTCGTT	0.11

Sequence	relative binding free energy [kcal/mol]
AGAAGCACGTGGTAAG	-0.07
AGGAGCACGTGCGTGT	-0.18
CGGGTCACGTGGGGTG	-0.06
ACTGGCACGTGCTGTG	-0.16
TGGGACACGTGCGTTT	0.11
TGTTGCACGTGGGCGT	-0.11
TTAAACACGTGTTTTG	-0.05
AGGTCCACGTGATTGG	0.16
TGTTTCACGTGGTCCG	0.17
GGTGTCACGTGTCATA	0.2
ATGCTCACGTGGCTGG	0.18
GCGGTCACGTGGAGGG	0.07
TGGGTCACGTGGAAAG	0.25
TTTAGCACGTGTGTAT	-0.02
CTTTTCACGTGGAATA	0.38
GCTTGCACGTGTAGGA	-0.04
ATTCTCACGTGGAGTT	0.19
AGAGTCACGTGTGGGT	0.23
CGGTTCACGTGGATAA	0.25
AAGTGCACGTGTATGA	0.04
TGCTACACGTGGAGTT	0.03
GGCTTCACGTGTGGTG	0.31
AGAGCCACGTGTGTGT	-0.17
GTGGTCACGTGCAGCG	0.04
CGTAACACGTGTGTTT	-0.08
CGTCTCACGTGTTGGA	0.2

Sequence	relative binding free energy [kcal/mol]
CATGACACGTGTATGT	-0.07
CGTGTCACGTGCAGGT	0.1
GGTGGCACGTGTGCAA	-0.09
AGGATCACGTGTAGTG	0.12
CTGGTCACGTGTAGGA	0.1
TCCAGCACGTGTTGGG	-0.02
GTGAGCACGTGTTGGA	0.04
AGTTACACGTGGGTAT	0.01
GGGCGCACGTGGGCCT	-0.08
TTTTACACGTGCTGCG	0.06
ATAGGCACGTGTAAAG	0.05
ATGGACACGTGGAGGG	-0.12
GTGCCCACGTGTTAGT	0.04
GTTTACACGTGTATGT	0.11
CTAGGCACGTGGGCGA	-0.32
TGGTGCACGTGAGACG	0.08
ATGTGCACGTGGCTTA	-0.18
TCTTGCACGTGTGGCT	0.05
TCTTACACGTGGGGTG	-0.03
GCGGTCACGTGTGTGT	0.05
GTGGACACGTGATAGC	0.21
ATGGGCACGTGGCGTA	-0.32
GGATTCACGTGAATTG	0.51
AGTTACACGTGTTGTT	0.23
CTACGCACGTGGGTTG	-0.2
GACGTCACGTGGTGAG	0.17

Sequence	relative binding free energy [kcal/mol]
CTTCTCACGTGTTGGG	0.2
CGTGACACGTGGGTGG	-0.18
TAAAACACGTGTGGGT	0.1
TGGTACACGTGAAGCG	0.45
TTTTTCACGTGGTAAT	0.33
GATTTCACGTGGGCTT	0.37
CGGTCCACGTGTGGTA	0
ATACGCACGTGGGGGT	-0.35
CGGTTCACGTGTGATA	0.2
GTGTGCACGTGTTTTA	0.11
TTAGGCACGTGCTAGG	-0.06
TTGCCCACGTGTTGTG	-0.2
GGGCACACGTGTTTTA	0.17
ACGAGCACGTGGATGG	-0.13
GTTTGCACGTGGATGC	0.19
TTCTGCACGTGTTGAT	-0.01
TCTGTCACGTGATATG	0.08
ATGTACACGTGAGTAA	0.23
TGGTGCACGTGAGATA	0.18
CAGAGCACGTGGTGAG	-0.07
GCTTGCACGTGATATG	0.16
CTTATCACGTGTAGGT	0.11
ATGATCACGTGAGTAG	0.34
TTTAGCACGTGGTAAT	-0.15
GGGATCACGTGTGACG	0.12
TTGTACACGTGTACGG	0.06

Sequence	relative binding free energy [kcal/mol]
CGGGGCACGTGGTTGA	-0.12
CTTGTCACGTGATATT	0.08
TAGGTCACGTGATTAA	0.3
TAGTACACGTGTTTTT	0.11
TAGTGCACGTGTGCGA	0.1
GTTCGCACGTGGAGAG	-0.11
TCCTGCACGTGGGTTT	-0.14
TGCGCCACGTGAGGGT	0.11
TGAGACACGTGGTGAT	-0.17
GAAATCACGTGGGTGT	0.13
GGGTCCACGTGGGTAA	-0.04
GACGTCACGTGATGTG	0.16
TTTACCACGTGTTAGA	0.13
TGTTGCACGTGGACGT	-0.08
TCCTGCACGTGGTGTT	-0.27
AGGGACACGTGGGATG	-0.04
TTAGGCACGTGGGTTT	-0.19
TGCTTCACGTGTTGGG	0.37
ATGTTCACGTGTCATG	0.12
AGCGGCACGTGTCGGT	-0.04
TGGGCCACGTGGTGCG	-0.23
AGGTGCACGTGTTTAA	-0.12
TTGAGCACGTGGAAAG	-0.03
GATCTCACGTGTGATT	0.41
TCAGGCACGTGTAAGT	-0.05
ATTCTCACGTGTAGTT	0.24

Sequence	relative binding free energy [kcal/mol]
AAGTCCACGTGTTGTG	-0.03
TCGGACACGTGGGGAT	-0.14
TGATACACGTGGTGGG	0
GTCAGCACGTGGTGGT	0
ATGTTCACGTGGCGCG	0.07
TCGCTCACGTGTTGGT	0.09
GGGAGCACGTGTTAAG	-0.07
TGGAACACGTGGGTCG	-0.21
AGTCTCACGTGAGTTG	0.35
GGTTTCACGTGGGGAC	0.27
AAAGGCACGTGTTTGG	-0.12
CTTGGCACGTGGGTCT	-0.25
ATGAGCACGTGGGGAC	-0.23
TGTGTCACGTGGTAAC	0.07
TTCGGCACGTGAATGA	0.17
TAGATCACGTGGATTA	0.11
GGATTCACGTGACGTT	0.49
TAATTCACGTGGATTT	0.21
ATGGTCACGTGGTGCT	-0.03
GTTCACACGTGTAGGA	0.22
GTTGCCACGTGTTGAT	-0.09
AGTTTCACGTGTTGCT	0.18
AATTACACGTGTTGGG	0.12
TGGCACACGTGGTATG	-0.01
TGTGCCACGTGTGGAA	-0.05
GGGTACACGTGATGGC	0.22

Sequence	relative binding free energy [kcal/mol]
CCTGTCACGTGGGGCT	-0.01
TAGAACACGTGTGGGC	0.06
TTTGCCACGTGTCTTG	-0.13
ATTTCCACGTGTTGAG	0.07
GCGGTCACGTGTTGCG	0.05
CTGGGCACGTGCGGGG	-0.15
TGATTCACGTGTCTGA	0.22
CTCTGCACGTGGGTTA	-0.13
TTGTCCACGTGAGCTT	0.42
GCTTGCACGTGGCTTG	0.05
GAATTCACGTGCGGTA	0.24
ATTCACACGTGTGTGG	0.18
AGTGGCACGTGCGTTT	-0.15
TATTGCACGTGTTTTC	0.13
GTTAACACGTGGCGAG	0.08
GGGGGCACGTGGAGCT	-0.1
AATGTCACGTGCGTGT	0.08
GATTTCACGTGGTGCT	0.21
GGGTGCACGTGATGTT	0.19
AGTTTCACGTGATCGG	0.34
GGATGCACGTGTTGGA	0.02
AATTTCACGTGTTTTT	0.18
TTCGTCACGTGTCAGT	0.1
AGATGCACGTGGAGGC	-0.19
GTAGTCACGTGGGATT	0.11
GAGGTCACGTGGTGGG	0.25

Sequence	relative binding free energy [kcal/mol]
AGTTTCACGTGTGAGA	0.32
GGTCACACGTGTTCTG	0.29
GGGGTCACGTGAGAAA	0.5
ATAGGCACGTGCCTTG	-0.15
GGGAGCACGTGGGTTA	-0.21
GGGGGCACGTGAGCTT	0.16
TTCAACACGTGGTATT	-0.07
TTGGGCACGTGGTCTC	-0.23
CTTGTCACGTGTTGGG	0.19
TATGTCACGTGGAGCG	0.03
TATGGCACGTGTGGTT	0.01
ATCTTCACGTGTTGGA	0.23
TGGATCACGTGACTTT	0.24
ATAGACACGTGGGGGG	-0.08
TAGGGCACGTGGTTGA	-0.18
TTCGGCACGTGTTGAA	0
AATAACACGTGTTTTG	-0.03
ATCTTCACGTGTATAT	0.37
TTGATCACGTGGTCCG	0.17
TTAAGCACGTGCTGTG	-0.23
TTGTGCACGTGTGCTT	0.01
GAGTTCACGTGAGCGG	0.58
